Measurements published in the supplement of paper PMC3334620.
Over roughly 33,000 sequences, “E-score (-0.5 to 0.5)” has its median near -0.043; the highest 2% begin near 0.37. This is one part of the list.

What follows are sequences tested against T1, Upc2 (UniProt Q12151) (assay: PBM E-score (8-mer binding enrichment) (E-score (-0.5 to 0.5)); higher = stronger / more preferred TF binding; most listed sequences are background and not binding sites). Conditions: protein concentration: 200 nM; construct: GST-full length.
T1 sequence: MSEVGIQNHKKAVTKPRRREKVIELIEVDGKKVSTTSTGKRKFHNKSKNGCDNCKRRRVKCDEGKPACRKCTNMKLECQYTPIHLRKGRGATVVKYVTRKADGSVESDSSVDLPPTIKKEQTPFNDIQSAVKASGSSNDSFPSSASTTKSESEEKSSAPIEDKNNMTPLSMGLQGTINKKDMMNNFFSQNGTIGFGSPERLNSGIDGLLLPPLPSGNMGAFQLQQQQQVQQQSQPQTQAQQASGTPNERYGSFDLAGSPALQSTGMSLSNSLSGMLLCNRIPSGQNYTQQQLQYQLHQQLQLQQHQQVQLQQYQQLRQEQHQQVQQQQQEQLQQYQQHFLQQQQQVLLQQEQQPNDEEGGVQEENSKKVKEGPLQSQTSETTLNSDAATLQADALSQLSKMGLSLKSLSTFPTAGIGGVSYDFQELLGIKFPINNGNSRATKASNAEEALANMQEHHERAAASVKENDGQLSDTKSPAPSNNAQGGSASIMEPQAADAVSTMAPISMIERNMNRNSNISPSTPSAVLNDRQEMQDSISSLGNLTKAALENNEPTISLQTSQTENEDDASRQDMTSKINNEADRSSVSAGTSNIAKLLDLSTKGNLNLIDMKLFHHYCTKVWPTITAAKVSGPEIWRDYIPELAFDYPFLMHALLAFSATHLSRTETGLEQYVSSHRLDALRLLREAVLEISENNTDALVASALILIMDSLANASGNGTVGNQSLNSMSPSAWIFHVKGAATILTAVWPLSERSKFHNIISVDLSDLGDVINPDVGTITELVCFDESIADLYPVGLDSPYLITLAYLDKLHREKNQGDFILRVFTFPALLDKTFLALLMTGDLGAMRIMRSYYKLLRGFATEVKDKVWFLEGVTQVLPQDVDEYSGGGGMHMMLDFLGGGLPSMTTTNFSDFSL
In short: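 Yeast transcription factors carrying a GST tag, as full-length proteins or DNA-binding domains, were produced by PURExpress in vitro transcription/translation. About 100-200 nM protein was applied to universal all-10-mer Agilent arrays, double-stranded by primer extension on fresh or once-stripped slides. Bound protein was detected with fluorescent anti-GST, and scans were normalised with masliner. The Universal PBM Analysis Suite gave each ungapped eight-base word, pooled with its reverse complement, an E-score, a modified Wilcoxon-Mann-Whitney statistic.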

Point of comparison: GCCACTAC, “PBM E-score” value -0.0719. Against it:
- ATCGTGCG — higher, 0.259
- CGAACTGA — higher, -0.0113
- CGGAGACG — higher, -0.00701
- CGCCACTA — lower, -0.193
- TCCACAGA — lower, -0.123
- GAACTCCA — lower, -0.103
- GCAGATAA — higher, -0.0652
- AATTATGA — higher, -0.0252
- CCAAGTCG — higher, -0.0095
- CCCACCTC — higher, -0.0334
- GAGACAGC — lower, -0.181
- AGCTTACG — higher, 0.336
- CGAAGTCC — higher, -0.0584
- ATATACGC — higher, 0.387
- TGCCCGCA — higher, 0.0619
- GCCGCTGA — lower, -0.198
- AATGCTGA — lower, -0.354
- GACCCTCA — lower, -0.386
- GTATAAGA — higher, 0.395
- AGAGGAAC — lower, -0.152
- CTCCTCCA — lower, -0.239
- ATGAATAG — higher, -0.0435
- AGCGTTAG — higher, -0.0103
- CCCTTAGG — lower, -0.121
- GTGAAAAA — higher, 0.00944
- CAATCGAC — lower, -0.125
- ACGAGAGT — higher, 0.332
- GTTATTTA — higher, 0.142
- AGCTTAGC — higher, -0.0511
- AAAGCTGA — lower, -0.126
- AGGTTTCC — lower, -0.0773
- AGGCTGAC — lower, -0.101
- CCATAATC — lower, -0.0914
- ATGCCGTG — lower, -0.164
- AAGCTAGC — higher, -0.0164
- ATGAACAG — higher, -0.0232
- CAGGCGTC — higher, -0.0547
- ACTGACAG — higher, 0.161
- GAAGTTGA — higher, 0.0259
- AAGGGTAT — lower, -0.083
- CGACCGAA — higher, 0.0722
- CAGAGAAG — higher, 0.059
- GGAATAGA — lower, -0.163
- GCCCGTAA — higher, 0.278
- AGATCTAA — lower, -0.0877
- AGAGTGCG — higher, 0.0695
- CAATGCCC — lower, -0.124
- CACCGATC — higher, -0.0123
- AGGTGAAA — higher, 0.0164
- ACTCACAA — lower, -0.0892
- AATTCATG — higher, 0.0851
- CCACAAGG — lower, -0.327
- GCGGATCC — higher, -0.0159
- CCACTAGC — lower, -0.216
- CCATAGAG — lower, -0.304
- GCCGTTCA — higher, 0.31
- GAGACCTA — higher, -0.0109
- ACCACAAT — higher, 0.00119
- GAACGCGC — higher, 0.234
- GCGACGAC — higher, -0.0205
- AGAGTGGA — lower, -0.257
- AACGCCAC — higher, -0.0129
- CATGATTA — higher, 0.0966
- CAAAGACG — lower, -0.267
- ACTACCCG — higher, 0.0174
- AAAGCAGC — lower, -0.0921
- CTCATCGA — higher, 0.0301
- GCCGCCGC — lower, -0.199
- ATGCCGAC — lower, -0.0823
- ATGGGGAC — lower, -0.207
- ACCTCTCA — lower, -0.205
- CTACTAAC — higher, -0.0374
- ACACAGAT — higher, -0.068
- CCCAGCGA — higher, -0.0488
- GGCCAACA — higher, -0.0678
- CAGCAATG — lower, -0.195
- AGACGGTG — lower, -0.109
- CAAGACAG — lower, -0.356
- ACGAGTTC — higher, 0.342
- CTACCTTC — higher, -0.0586
- GGCCCTCA — lower, -0.302
- AGCCCTGG — lower, -0.22
- ACACATTA — higher, 0.102
- ACGCATAA — higher, 0.172
- AAACTGGC — lower, -0.203
- ATCAGAAC — higher, 0.0734
- AGGGGGTA — lower, -0.251
- AGCTGGCA — lower, -0.13
- CCTTGCGA — lower, -0.195
- GGCACGTA — higher, 0.133
- AGTCGGAG — lower, -0.179
- GCAACGGC — lower, -0.117
- ATACGGGG — higher, 0.411
- CTTTCGAC — higher, -0.0443
- GCCTTCAA — lower, -0.221
- ATATCGCC — higher, -0.0125
- AGTGCATG — lower, -0.0727
- AACACACT — higher, 0.0379
- CCTAGCGC — lower, -0.228
- CAACCGTC — higher, -0.0306
- ACTTTCAC — lower, -0.0835
- ATTATACC — higher, 0.144
- TAGCCAAA — higher, 0.0938
- ATATTGCA — higher, 0.114
- TGACCCAA — lower, -0.204
- CTCTAGTC — lower, -0.141
- AATAGTAG — higher, -0.0499
- AAAGTACG — higher, 0.305
- GTCATACA — lower, -0.119
- GTTTGATA — higher, 0.132
- CGCAATTA — higher, -0.00479
- ACAAAGCT — higher, -0.0598
- GGATCGTA — higher, 0.422
- GTCGGCTA — higher, 0.0283
- CTATCAGC — lower, -0.151
- CCATTGAA — higher, -0.00183
- ATTACGTG — lower, -0.118
- CGCTTACG — higher, 0.372
- GGATCTAA — higher, 0.00023
- ACACTCCA — higher, -0.00609
- CTAACCCC — lower, -0.306
- GAGGGATA — higher, 0.0343
- CTCATGAC — higher, -0.00923
- AGACGGCG — higher, -0.0186
- CCAAGCAG — lower, -0.234
- AGGCGTGG — lower, -0.205
- AACCAGTC — lower, -0.105
- AATCTGTG — lower, -0.122
- AACTAGCG — higher, 0.0976
- ACACGTCA — lower, -0.184
- ATTCCTCA — higher, -0.0423
- CCGAAACA — higher, 0.197
- CTTGACTA — lower, -0.107
- AGCTGGAA — lower, -0.109
- AGTCTTTA — higher, -0.0445
- AGTATCAT — higher, 0.152
- CTCGCGAC — higher, 0.153
- CCAAGACA — lower, -0.167
- TACGGGCA — higher, 0.351
- ATAGATAG — lower, -0.199
- ACGCACAT — higher, 0.251
- CCACCCTC — lower, -0.0806
- CCCAGGAA — lower, -0.135
- ATGCCGAA — higher, 0.0644
- GAAGACGA — higher, 0.102
- ACGTTGCA — higher, 0.12
- ATTCGAAT — higher, 0.0538
- CTTGGCTA — lower, -0.234
- AACCTGTA — higher, 0.118
- GACCCCGC — higher, -0.0436
- ACTATTTG — lower, -0.13
- AGTGGACG — higher, 0.0343
- CGAAGCCA — higher, 0.0563
- AGGTACAA — lower, -0.153
- ATTCCGAC — lower, -0.0912
- AACCACAA — lower, -0.077
- GCGCCTTA — higher, 0.0151
- GTAACTAC — higher, 0.0797
- AAATCTCT — higher, 0.0268
- CGACAGAC — higher, 0.101
- CGGAGGCA — lower, -0.0797
- ACGTTCCA — higher, 0.116
- ACGCAATC — higher, 0.0471
- CCTGGACG — lower, -0.214
- AACTAGGT — lower, -0.132
- AGCAATTA — higher, 0.025
- AACTGAGG — higher, -0.0146
- GGTGAACA — lower, -0.288
- AATGACTG — lower, -0.197
- AGACTAAT — lower, -0.24
- ACCAGATA — higher, 0.118
